The text below walks through data of US20240148898A1 (CELLEMEDY, published 2024).

Test [1] has as its target T1, mouse transferrin receptor (mouse, UniProt Q62351).
T1 construct: also called TfR Mouse
In words: MST (Monolith NT.115), His-tag-dye-labelled protein, TfR titrated. As for the experimental part:
(§1) First, 100 μl of dye that specifically binds to a hexa-His tag (RED-tris-NTA 2nd Generation Dye) was prepared at a concentration of 50 nM, along with 100 μl of the produced protein at a concentration of 200 nM, followed by mixing the same and incubating at room temperature for 30 minutes. The incubated product was centrifuged at 13000 rpm for 10 minutes at 4° C. by a centrifuge, thus to separate the supernatant and obtain a dye-labeled protein.
(§2) Then, 25 μl of 9.65 μM transferrin receptor was added to the 1st PCR tube; 10 μl of PBS-T (PBS+0.5% tween 20) buffer was added to 2nd to 16th PCR tubes; 10 μl of transferrin in the 1st PCR tube was transferred to the 2nd PCR tube; and 10 μl was again transferred from the 2nd PCR tube to the 3rd PCR tube. Likewise, this procedure was continued up to the 16th tube thus to perform ½ dilution in a sequential order so that each of the 2nd to 16th PCR tubes becomes 20 μl.
(§3) Thereafter, 10 μl of the dye-labeled protein was added to each PCR tube, and the reaction was performed at room temperature for 1 hour.

For test [2], the target named is T2, human transferrin receptor (human, UniProt P02786).
T2 construct: also called TfR Human
The description is as above. As for the experimental part: as §1, §2, §3

For test [3], the target named is T3, transferrin receptor (TfR), species not stated.
T3 construct: also called the transferrin receptor
Put plainly: Microscale Thermophoresis (MST) with the transferrin receptor, Example 5; species of TfR not given on the sheet or in the legend (value coincides with the Mouse TfR row of Table 5). For orientation: MST reads how a fluorescent partner responds to local heating, with and without ligand.

T1 sequence (Q62351 89-763 limits assumed): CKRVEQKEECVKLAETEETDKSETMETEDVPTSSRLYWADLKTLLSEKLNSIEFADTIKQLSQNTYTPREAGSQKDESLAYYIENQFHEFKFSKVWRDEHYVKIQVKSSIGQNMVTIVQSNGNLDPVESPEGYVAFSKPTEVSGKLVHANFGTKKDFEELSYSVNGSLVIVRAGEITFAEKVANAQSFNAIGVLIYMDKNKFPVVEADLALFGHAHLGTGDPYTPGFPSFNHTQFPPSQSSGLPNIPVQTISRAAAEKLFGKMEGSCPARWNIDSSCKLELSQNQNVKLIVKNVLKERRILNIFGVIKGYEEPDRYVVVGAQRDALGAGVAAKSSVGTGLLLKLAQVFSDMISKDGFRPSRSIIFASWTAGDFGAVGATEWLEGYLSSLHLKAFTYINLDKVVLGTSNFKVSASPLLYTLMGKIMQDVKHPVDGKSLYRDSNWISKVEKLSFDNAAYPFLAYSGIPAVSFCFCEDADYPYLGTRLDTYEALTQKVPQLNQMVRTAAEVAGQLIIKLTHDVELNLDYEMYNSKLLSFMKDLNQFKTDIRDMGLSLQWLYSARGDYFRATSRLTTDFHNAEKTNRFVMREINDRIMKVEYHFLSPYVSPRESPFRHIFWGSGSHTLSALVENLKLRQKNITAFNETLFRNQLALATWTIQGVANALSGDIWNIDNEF

B1: N-gp100-huHF (other)
chain: not shown
notes: also called gp100-huHF (N-terminus); TSA insertion site N, gp100
For B1, the dissociation constant Kd (usually the equilibrium constant for the complex coming apart) in test [1] is 48.3 nM; in test [2], 18.5 nM; in test [3], 48.3 nM.

B2: N-AH1-huHF (other)
chain: not shown
notes: also called AH1-huHF (N-terminus); TSA insertion site N, AH1
In test [2], B2 displayed a Kd of 84.6 nM.
